Measured values taken from the supplement of paper PMC12217912.
This is one part of the list. Sequences were assembled here from the parent chain. Inactive controls read about 0.05.

B1: TEV protease; numbered along this chain (parent)
chain: MGESLFKGPRDYNPISSSICHLTNESDGHTTSLYGIGFGPFIITNKHLFRRNNGTLVVQSLHGVFKVKDTTTLQQHLVDGRDMIIIRMPKDFPPFPQKLKFREPQREERICLVTTNFQTKSMSSMVSDTSCTFPSGDGIFWKHWIQTKDGQCGSPLVSTRDGFIVGIHSASNFTNTNNYFTSVPKNFMELLTNQEAQQWVSGWRLNADSVLWGGHKVFMVKPEEPFQPVKEATQL

Variants of: B1
Experiment: raw area under fraction-flipped curve 0-4 h after induction (AUC4h, not background-subtracted), DNA-recorder readout of cleavage of the substrate (dimensionless); higher = more cleavage of the substrate by the protease variant
Conditions: temperature: 34 °C; time window: 0-4 h after rhamnose induction
Procedure: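 In vivo DNA recorder in E. coli TOP10(DE3) ΔrhaA at 34 °C. Each TEVp single-site mutant (parent TEVp 0) is paired with a single-site variant of the 7-mer TEVs (canonical ENLYFQ|S). The substrate sits between flexible linkers in a Bxb1-sfGFP-TEVs-SsrA fusion, so cleavage stabilises Bxb1 and speeds flipping of a recombination array, read by NGS. The value is the raw area under the fraction-flipped curve over 0-4 h after rhamnose induction (AUC4h), with ≥20 reads per time point. It is not background-subtracted; inactive controls average about 0.047.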
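Further: Bxb1 expression induced with 0.2% (w/v) L-rhamnose at OD600 near 0.5, cultures sampled hourly, flipped fraction per protease–substrate barcode pair counted by paired-end Illumina sequencing.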

Variant | area with substrate ENLAFQS | area with substrate ENLCFQS | area with substrate ENLDFQS | area with substrate ENLEFQS | area with substrate ENLFFQS | area with substrate ENLGFQS | area with substrate ENLHFQS | area with substrate ENLIFQS | area with substrate ENLKFQS | area with substrate ENLLFQS | area with substrate ENLMFQS | area with substrate ENLNFQS | area with substrate ENLPFQS | area with substrate ENLRFQS | area with substrate ENLSFQS | area with substrate ENLVFQS | area with substrate ENLWFQS | area with substrate ENLQFQS | area with substrate ENLTFQS
V165E | 0.0563 | 0.05 | 0.0588 | 0.0567 | 0.0524 | 0.0628 | 0.0586 | 0.0474 | 0.0701 | 0.0432 | 0.0595 | 0.0492 | 0.0581 | 0.0542 | 0.0695 | 0.0615 | 0.0516 |  | 
G162C | 0.0526 | 0.067 | 0.0572 | 0.0781 | 0.0902 | 0.0672 | 0.0814 | 0.0741 | 0.0708 | 0.0755 |  | 0.063 | 0.0603 | 0.0748 | 0.0542 |  | 0.0445 | 0.0643 | 
V157F | 0.0591 | 0.0627 | 0.0633 | 0.0608 | 0.0855 |  | 0.0472 | 0.0763 | 0.0637 | 0.0638 |  | 0.0595 | 0.0593 | 0.0647 | 0.0538 |  |  | 0.0707 | 
I164A | 0.0501 | 0.0455 | 0.0622 | 0.048 | 0.0625 |  | 0.0457 | 0.0637 | 0.0603 |  |  | 0.0431 | 0.0454 | 0.062 | 0.0497 | 0.0749 |  |  | 
C152V | 0.0515 | 0.0664 | 0.0669 | 0.0728 | 0.0616 | 0.0704 | 0.0709 | 0.0617 | 0.0542 | 0.032 |  | 0.0716 |  | 0.0559 | 0.0571 | 0.0597 | 0.0611 |  | 0.0588
C152W | 0.0565 | 0.0761 | 0.0653 |  | 0.075 | 0.0594 | 0.0601 |  | 0.0692 | 0.0705 |  | 0.0577 | 0.0496 | 0.0807 | 0.036 | 0.0596 |  | 0.0515 | 
R160D | 0.0651 | 0.0852 | 0.057 | 0.0552 | 0.0886 |  | 0.0749 |  | 0.076 | 0.0712 | 0.104 | 0.0639 |  | 0.0868 | 0.0603 |  | 0.0689 | 0.0618 | 0.0589
R160K | 0.0543 |  | 0.0676 | 0.0759 | 0.096 |  |  | 0.0833 | 0.0776 |  | 0.0928 | 0.0537 | 0.069 | 0.0801 | 0.049 |  | 0.0711 |  | 
R160I | 0.0671 | 0.0472 | 0.0674 | 0.0674 | 0.0833 |  | 0.059 | 0.0796 | 0.112 | 0.0233 | 0.0795 | 0.0609 | 0.0614 | 0.0703 | 0.0603 | 0.0627 | 0.0645 |  | 
R160V | 0.0559 | 0.0784 | 0.0711 | 0.0679 | 0.078 | 0.0615 | 0.0601 | 0.0701 | 0.0818 | 0.081 |  | 0.0593 | 0.0466 |  | 0.0651 | 0.0784 | 0.067 | 0.0809 | 
R160Y | 0.0781 | 0.0973 | 0.0469 | 0.0644 | 0.0898 |  | 0.0698 | 0.118 | 0.0769 | 0.136 |  | 0.0544 |  | 0.0741 | 0.0697 | 0.078 |  |  | 0.0598
D161V | 0.052 | 0.057 | 0.057 |  | 0.0545 |  | 0.0574 | 0.0513 | 0.0622 | 0.0561 |  | 0.0567 | 0.0532 | 0.0542 | 0.0549 | 0.0549 | 0.0625 |  | 0.0508
T174D | 0.0774 |  | 0.0719 | 0.0528 | 0.0964 | 0.062 | 0.0678 | 0.0698 | 0.0717 | 0.0698 |  | 0.0715 | 0.0494 | 0.0524 | 0.0666 | 0.0845 | 0.0774 | 0.0041 | 0.0774
T176M | 0.0676 | 0.067 | 0.0657 |  |  | 0.0452 | 0.0427 | 0.0588 | 0.0711 |  |  | 0.0659 | 0.0644 |  | 0.0522 | 0.0335 | 0.0656 | 0.0885 | 
T176I | 0.0625 | 0.0661 | 0.0632 | 0.066 | 0.0781 | 0.0715 |  | 0.0604 | 0.0694 | 0.0615 |  | 0.0658 | 0.0662 |  | 0.0709 | 0.0405 |  | 0.0503 | 
T176C | 0.0574 |  | 0.0667 | 0.0775 | 0.0585 | 0.0619 | 0.0648 |  | 0.0812 | 0.0663 |  | 0.0799 | 0.0282 |  | 0.0655 |  |  | 0.0657 | 
H168K | 0.0547 | 0.0524 | 0.0698 |  | 0.0506 | 0.0778 | 0.0581 | 0.0631 | 0.0692 |  | 0.065 | 0.0639 | 0.0475 |  |  |  |  | 0.0474 | 
H168I | 0.0661 | 0.0599 | 0.0601 | 0.0591 | 0.0694 |  | 0.0599 | 0.0653 | 0.0572 | 0.0507 |  | 0.0507 | 0.0602 | 0.0566 | 0.05 | 0.0392 | 0.0546 |  | 0.0689
H168F | 0.0482 |  | 0.0506 | 0.0689 | 0.0601 |  | 0.0611 |  | 0.0574 |  |  | 0.0472 | 0.0644 |  |  |  | 0.0635 |  | 0.0527
H168E | 0.0565 | 0.069 | 0.0582 | 0.0678 | 0.0566 |  | 0.0641 | 0.0809 | 0.0548 |  | 0.0745 | 0.0628 | 0.0577 | 0.0647 | 0.0836 | 0.0559 |  |  | 
H168L | 0.0644 | 0.0677 |  |  | 0.0471 |  | 0.075 |  |  | 0.0707 |  | 0.0599 | 0.0526 |  | 0.0584 |  | 0.0553 | 0.0549 | 
H168Y | 0.0562 | 0.0631 | 0.069 | 0.0594 |  | 0.0716 | 0.0729 | 0.0618 | 0.0451 | 0.0546 |  | 0.067 | 0.0673 | 0.0608 | 0.0603 | 0.0605 | 0.045 | 0.035 | 
H168Q | 0.0528 | 0.0462 | 0.0611 | 0.0567 | 0.064 | 0.0587 | 0.064 |  | 0.0575 | 0.0614 | 0.0501 | 0.0709 | 0.0617 | 0.0503 | 0.0614 | 0.0668 | 0.0609 | 0.0514 | 
H168N | 0.0675 | 0.0563 | 0.0608 |  | 0.0433 |  | 0.0742 |  |  | 0.0746 |  | 0.0707 |  |  | 0.055 |  |  |  | 
N175K | 0.0593 |  | 0.0702 | 0.0638 | 0.103 | 0.0687 | 0.0582 | 0.104 | 0.0817 | 0.0827 | 0.096 | 0.0647 |  | 0.0739 | 0.0615 | 0.0641 | 0.0768 |  | 
